Hit rate of the full screen: of about 420,000 compounds, about 64,000 (15%) were called active. This list was built around the results that the source calls inconclusive (neither active nor inactive); the mix of calls is not that of the screen. Calls follow the shape of the dose curve; as a rule, active = well fitted inhibition curve with a large enough effect; inconclusive = small, poorly fitted or top-dose-only effect; inactive = flat fitted curve, though single readings scatter. Potencies of inconclusive entries are left out as doubtful fits.
experiment: qHTS for Inhibitors of human tyrosyl-DNA phosphodiesterase 1 (TDP1): qHTS in cells in absence of CPT; conditions: DT40 Tdp1-/- hTDP1 cells, no CPT, ATP luminescence, 48 h; activity change, negative = growth inhibition: at 46.2 µM (top of the series) unless noted; also: nearly all actives have a fitted effect of over 55% in size
Summary of the method: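 No-CPT arm: Tdp1-/-;hTDP1 DT40 cells (400/well) plus compounds, incubated ≥48 hr at 37 °C. Readout CellTiter-Glo luminescence.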
% is scaled to controls: 0 for no effect and ±100 for the full control effect; potency is read from the fitted curve at half-maximal effect; tags tell the direction and shape of the fitted curve.

SMILES	Potency	activity change, negative = growth inhibition
O=C(NCc1ccccc1)c1nn(-c2ccccc2)nc1CO	inconclusive [inhibitor, single point]	
Cc1cc(C)cc(NS(=O)(=O)c2ccc3[nH]cc(C(=O)N(C)Cc4ccccc4)c(=O)c3c2)c1	inconclusive [inhibitor, single point]	
Cc1ccc(OCc2cc(C(=O)N3CCN(C)C[C@@H]3c3ccccc3)no2)cc1C	inconclusive [inhibitor, single point]	
C=C(c1cn(C(C)=O)c2ccccc12)c1cn(C(C)=O)c2ccccc12	inconclusive [inhibitor, single point]	
Cc1ccc(C)c(CC(=O)N2CCCC(c3cc(C(=O)Nc4ccc5c(c4)OCO5)no3)C2)c1 (stereo unspecified)	active: 16.4 µM	
Cc1cc(Nc2ccc(F)cc2)n2c(nc3ccccc32)c1C#N	inconclusive [inhibitor, partial curve]	
COc1cccc(NC(=S)N2CCN(S(=O)(=O)c3ccccc3)CC2)c1		inactive: 14.9%
COC(=O)c1cc(C(=O)c2ccc(C(C)(C)C)cc2)c[nH]1	active: 11.6 µM	
COc1cc(Nc2ncc3c(n2)CCN(Cc2cc(Br)cs2)C3)cc(OC)c1	active: 23.1 µM	
COC(=O)CCN(c1ccccc1)S(=O)(=O)c1cc(-c2cc(C)no2)ccc1C	inconclusive [inhibitor, single point]	
CC(NS(=O)(=O)c1ccc(N)cc1)C1CC2CCC1C2 (stereo unspecified)	inconclusive [inhibitor, partial curve, poor fit]	
CC(NS(=O)(=O)c1ccc(NC(=O)N2CCCCC2)cc1)c1ccccc1 (stereo unspecified)	inconclusive [inhibitor, single point]	
O=C(Cc1cccc(NC(=O)C2CCCN(C(=O)C3CCCC3)C2)c1)Nc1ccc(C(=O)N2CCOCC2)cc1 (stereo unspecified)	inconclusive [inhibitor, single point]	
CCN(CC)S(=O)(=O)N1CCC(C(=O)NCC2COc3ccccc3O2)CC1 (stereo unspecified)	inconclusive [inhibitor, single point]	
Cc1ccc(CSc2nc3c([nH]c4ccccc43)c(=O)n2C)cc1	inconclusive [inhibitor, partial curve]	
CCCCNc1nc2c(S(=O)(=O)c3ccc(C)c(C)c3)nnn2c2ccsc12		inactive: -12.2%
CCCCN=c1scc(-c2ccc3c(c2)NC(=O)CO3)n1N=C1CCCC1	active: 23.1 µM	
CCCC(=O)c1cc2ccccc2oc1=O		inactive: -1.57%
Cc1sc(NC(=O)c2ccco2)c(C(Nc2ccccn2)c2ccccc2)c1C (stereo unspecified)	inconclusive [inhibitor, single point]	
CCn1c(=O)c(=O)[nH]c2c(=O)oc3ccc(S(=O)(=O)Nc4ccc(OC)cc4)cc3c21	inconclusive [inhibitor, single point]	
Cc1cc(C)c(C)c(S(=O)(=O)N2CCC(C(=O)NCc3cccs3)CC2)c1C	inconclusive [inhibitor, single point]	
Cc1occc1C(=O)Nc1ccc(OCc2ccccc2)cc1	active: 16.4 µM	
CCn1cc(CN(C)C(=O)CSc2nc(-c3ccco3)cc(C(F)(F)F)n2)c(C)n1	active: 23.1 µM	
Cc1sc(NC(=O)Cc2ccc3c(c2)OCO3)nc1-c1ccc2c(c1)CCN2C(=O)c1ccccc1F	active: 8.2 µM	

SMILES	Potency	activity change, negative = growth inhibition
COc1ccc(S(=O)(=O)NC(=O)C2(C)CCN2C(=O)Cc2cc(C)cc(C)c2)cc1OC (stereo unspecified)		inactive: 4.22%
CCNC(=O)C1(C)CCN(C(=O)c2cccc(Cl)c2)C1 (stereo unspecified)		inactive: -4.56%
Oc1cccc(-c2nc3ccc4ccccc4c3c3c2CCC3)c1	active: 20.6 µM	
COc1ccccc1CNC(=O)c1ccc2c(c1)nc(C)n2-c1ccccc1OC	inconclusive [inhibitor, single point]	
CSc1nc2[nH]ncc2c(=O)n1-c1ccccc1	inconclusive [inhibitor, single point]	
Cc1ccc(NC(=O)CCNC(=O)c2ccc(Cl)cc2)cc1C		inactive: 8.22%
Cn1c(-c2ccccc2)cc(=O)n1-c1ccccc1		inconclusive: -30.3% [inhibitor]
CCOC(=O)C1CCCN(CCC(=O)Nc2ccc(Br)cc2)C1 (stereo unspecified)	inconclusive [inhibitor, single point]	
O=[N+]([O-])c1ccc(C[n+]2cc(-c3ccccc3)n3c2CCCCC3)cc1	active: 11.6 µM	
COc1ccc(NC(=O)c2cccn2-c2nnc(N3CCCCC3)s2)cc1Cl	inconclusive [inhibitor, single point]	
CC1CCc2c(nc3ncnn3c2Nc2ccc(OC(F)(F)F)cc2)C1 (stereo unspecified)	active: 20.6 µM	
CCc1ccc(/C=C2\SC(=S)N(CCC(=O)Nc3cc(C)on3)C2=O)cc1		inconclusive: -31% [inhibitor]
Cc1ccc(Cl)cc1Nc1nc(-c2sc(NC(=O)c3ccco3)nc2C)cs1	inconclusive [inhibitor, single point]	
CCOc1ccc(NC(=O)c2ccc3c(c2)N(C)CCS3)cc1		inconclusive: -30.6% [inhibitor]
Cc1cc2c(c(-c3cnccn3)c1)OC(CNC(=O)c1c(F)cccc1Cl)C2 (stereo unspecified)	inconclusive [inhibitor, single point]	
O=C1CCCCCCCCCC/C(=N\O)CCCO1	inconclusive [inhibitor, single point]	
COCCNC(=O)CSc1nnc(CCCN2C(=O)c3cccc4cccc(c34)C2=O)n1-c1ccccc1		inconclusive: -32.5% [inhibitor]
O=C(CCCc1ccccc1)Nc1ccnn1C1CCN(Cc2ccccc2F)CC1	active: 20.6 µM	
CCn1nc(CC(=O)O)c2ccccc2c1=O		inactive: 18.9%
CCN(C[C@H]1N[C@@](CC)(C(=O)OC)[C@H]2C(=O)N(C)C(=O)[C@@H]12)C(=O)Nc1ccc(C)cc1		inactive: -13.1%
Cc1nc2ccccn2c(=O)c1NC(=O)c1ccc(C(F)(F)F)cc1	inconclusive [inhibitor, single point]	
COc1ccccc1NC(=O)CN1CCCN(S(=O)(=O)c2ccc(Br)cc2)CC1	inconclusive [inhibitor, single point]	
COc1ccc(N(C(C)=O)c2nc3ccccc3[nH]2)cc1		inconclusive: -32% [inhibitor]
Cc1ccc(NC(=O)Cn2c(=O)n(CCCCC(=O)NCc3ccccc3Cl)c(=O)c3ccccc32)cc1C	inconclusive [inhibitor, partial curve]	

SMILES	Potency	activity change, negative = growth inhibition
CCOC(=O)c1c(NC(=O)COC(=O)c2cc(OC)c(OC)cc2[N+](=O)[O-])sc(C)c1C	inconclusive [inhibitor, single point]	
Clc1ccc(-c2noc3c2-c2nc(Cc4cccc5ccccc45)sc2CC3)cc1		inactive: 10.7%
CCOc1ccc(NC(=O)Cn2c(C)cc3ccccc3c2=O)cc1		inactive: -0.123%
O=C(CNS(=O)(=O)c1ccc2ccccc2c1)Nc1ccc(F)c(F)c1F		inactive: -28.9%
COc1ccc(C(CCN)c2ccc3c(c2)OCO3)cc1 (stereo unspecified)	inconclusive [inhibitor, single point]	
CCOC(=O)c1c(NC(=O)CSc2nnnn2-c2ccc3c(c2)OCO3)sc(C)c1C	inconclusive [inhibitor, single point]	
C[C@@](N)(C(=O)O)c1ccc(S(=O)(=O)O)cc1		inactive: 2.99%
COc1cc(C(=O)NNC(=S)NC(=O)/C=C/c2ccccc2)cc(OC)c1OC	inconclusive [inhibitor, single point]	
COc1cccc(-c2nc(N3CCNCC3)c3ccccc3n2)c1	inconclusive [inhibitor, single point]	
CC(NC(=O)COC(=O)c1ccc(OCC2CCCO2)cc1)c1ccccc1Cl (stereo unspecified)		inactive: -13.7%
CCOc1ccccc1OCCN[C@H](C)Cc1ccc(OC)c(S(N)(=O)=O)c1	inconclusive [inhibitor, single point]	
Cc1ccccc1Nc1nnc(SCC(=O)c2c(N)n(C)c(=O)n(C)c2=O)s1	inconclusive [inhibitor, single point]	
Cc1ccccc1-c1csc(C(C)(O)c2ccc(F)c(F)c2)n1 (stereo unspecified)	inconclusive [inhibitor, single point]	
COc1cccc(C(=O)Nc2cccc3ccccc23)c1OC	inconclusive [inhibitor, single point]	
N#C/C(=C\C1=C(N2CCOCC2)C(=C\c2ccc(Cl)cc2)/CC1)C(=O)Nc1ccccc1F	active: 11.6 µM	
CCOC(=O)c1ccccc1NC(=O)c1sc2ncn(Cc3cccc(F)c3)c(=O)c2c1C		inactive: -25.3%
COc1cc(OC)cc(C(=O)N[C@H](C(=O)NCCc2c[nH]c3ccccc23)C(C)C)c1		inconclusive: -34.4% [inhibitor]
CC(C)(C#N)Cc1cc(CC(C)(C)C#N)cc(C(C)(C)C)c1		inactive: -14%
COc1ccc(N(CC(=O)NC2CCCC2)C(=O)Cn2nnc(-c3ccc(C)cc3)n2)cc1	inconclusive [inhibitor, single point]	
COc1ccc2c(C)cc(N3CCN(c4ccc(F)cc4)CC3)nc2c1	inconclusive [inhibitor, partial curve]	
COc1cccc(C(O)c2cnc(C(C)C)n2C)c1 (stereo unspecified)		inactive: -11.3%
COc1ccc(/C=C(\C#N)c2nc(-c3cc4c(ccc5ccccc54)oc3=O)cs2)cc1O	active: 3.26 µM	
Cc1ccc(C2=Nc3ccccc3N(CC(=O)NCc3ccc(F)cc3)C(=O)C2)cc1C	active: 23.1 µM	
